Experimental data published in ChEMBL document CHEMBL4888484, “Replenishing the malaria drug discovery pipeline: Screening and hit evaluation of the MMV Hit Generation Library 1 (HGL1) against asexual blood stage Plasmodium falciparum ,using a nano luciferase reporter read-out” (2022).
Values joined by “and” are separate entries in the source; they are usually repeats but may differ in a detail not shown here. Equal values may be shown once. Hit rate of the full screen: of about 150,000 compounds, about 540 (0.36%) showed an effect of 50% or more. Some of the results follow.

Test system: Plasmodium falciparum
Assay: Primary screen in NF54 nanoGlo assay, in single point, at 2uM, 72h; a lower Z score goes with more inhibition
Assay type: functional, Erythrocyte
Conditions: timepoint 72 hour

Row | Structure (SMILES) | % Inhibition | Z score | % Inhibition (2 µM)
1 | Cc1nnc(-c2ccc(C(=O)N3CCN(c4cnccn4)CC3)cc2)[nH]1 | -17% | 2.07 | –
2 | Cc1cccc(Nc2nnc(CC(=O)Nc3cc(Cl)cc(Cl)c3)s2)c1 | -4% | 0.52 | –
3 | CCNC(=O)N[C@H]1CCc2cc(C(=O)OC)ccc2NC1=O | 3% | -0.61 | –
4 | C[C@H](N)c1ncc(Br)cn1 | -3% | 0.52 | –
5 | N[C@@H](CO)c1cccc(Cl)c1Cl | 5% | -0.77 | –
6 | O=C(N[C@@H]1CCCC[C@H]1NC(=O)C1CCN(C(=O)c2ccc(C(F)(F)F)cc2)CC1)c1ccccc1 | -4% | 0.41 | –
7 | CCC(=O)N1CCc2sc(C(=O)NC3CCN(Cc4ccccc4)CC3)cc2C1 | 41% | -5.88 | –
8 | CCc1nccn1CCC(=O)N[C@H]1COC[C@@H]1OC | 8% | -0.99 | –
9 | CCCc1cc(C(=O)N2CC[C@]3(OC)CC[C@@H](OCCO)C[C@H]23)no1 | -6% | 0.79 | –
10 | C#CCN(CC1CC1)C(=O)c1cnn2cc(Br)cnc12 | -6% | 0.6 | –
11 | CCOc1ccc(CCN2C(=O)CC[C@@]2(C)C(=O)NCc2ccccc2)cc1OCC | -2% | 0.2 | –
12 | O=C(NCCc1cn2c(n1)CCCC2)c1ccncc1 | -7% | 1.47 | –
13 | Cc1[nH]nc(CN(C)CCN(C)C2CCCC2)c1Cl | -3% | 0.47 | –
14 | CCn1c(COC(=O)c2cnc(C)cn2)nc2cc(S(=O)(=O)N(C)C)ccc21 | -15% | 2.38 | –
15 | CCOC(=O)N(C)CC(=O)NC1CCCC1 | -3% | 0.45 | –
16 | CC(C)(C)C[C@@H](CO)NC(=O)c1ccc(C2CCC2)cc1 | -8% | 0.88 | –
17 | Cc1csc(Cn2ccnc2-c2ccc(C(=O)O)cc2)n1 | 1% | -0.13 | –
18 | O=C(Cn1cccn1)N1CCC[C@H](Oc2ncccn2)C1 | 7% | -0.94 | –
19 | COc1ccc(OC)c2c1cc1n2C[C@@](C)(C(=O)NC2CCCC2)N(CCN2CCCC2)C1=O | 1% | -0.14 | –
20 | CC[C@H]1CN(S(=O)(=O)c2ccc(OC)cc2)CC[C@H]1CC(=O)NCc1ccccc1 | -18% | 2.85 | –
21 | COCCCn1ccc(NC(=O)NCCc2sc(C)nc2C)n1 | 1% | -0.16 | –
22 | CC(C)(C)c1cc(C(=O)N2CCC(O)(C(F)F)CC2)no1 | -12% | 1.89 | –

Row | Structure (SMILES) | % Inhibition | Z score | % Inhibition (2 µM)
23 | CCC(CC)(CNC(=O)c1cc(S(N)(=O)=O)oc1Cl)OC | -1% | 0.24 | –
24 | COc1ccc(CC(=O)NCC2(O)CCCC2)cc1 | -9% | 1.6 | –
25 | Cc1nc(CN(C)Cc2ncon2)sc1C | -3% | 0.55 | –
26 | COC[C@@H]1CCC[C@@H]1NC(=O)Cc1cccc(O)c1 | 4% | -0.56 | –
27 | CCN1CCC(NC(=O)c2ccc3ccccc3c2)CC1 | -14% | 1.68 | –
28 | CCN=C(NCC)NCCc1nc(C)c(C)s1 | 0% | 0.07 | –
29 | O=C(CN(C(=O)COc1ccccc1)C1CC1)N(Cc1ccco1)C[C@H]1CCCO1 | -13% | 1.32 | –
30 | O=C(c1cc(-c2ccccc2)n[nH]1)N1CCC(N2CCC(Oc3ccccc3F)CC2)CC1 | -12% | 1.48 | –
31 | Cc1c(CN2C[C@H]3CCC[C@@H](C2)N(C)C3)[nH]c2ccccc12 | -7% | 1 | –
32 | CO[C@H]1CCOC[C@@H]1NC(=O)c1ccccc1Cc1ccc(C)c(F)c1 | 4% | -0.85 | –
33 | COc1ccc(-c2noc(-c3cccnc3N3CCN(c4ccccc4F)CC3)n2)cc1 | -5% | 0.71 | –
34 | CCN(CCC#N)C(=O)CNc1cc(NC(C)=O)c(F)cc1F | -1% | 0.1 | –
35 | O=c1c(NCc2nccn2C2CC2)cccn1CC(F)(F)F | -3% | 0.62 | –
36 | CCS(=O)(=O)N1CCCCCCN(C)C(=O)CC1 | 3% | -0.42 | –
37 | O=C(CCc1ccccc1)Nc1ccc(C(=O)c2ccncc2)cc1 | -9% | 1.01 | –
38 | C[C@@H](CC(N)=O)Nc1ncc(F)c(-c2ccsc2)n1 | -6% | 1.19 | –
39 | CC(=O)Nc1sc2c(c1CN1CCN(c3ccccc3)CC1)CCCC2 | -9% | 0.87 | –
40 | Cc1nc(C)c(C(=O)N(C)CCN(C)C(=O)OC(C)(C)C)o1 | -7% | 0.91 | –
41 | Cc1cccc(CN2[C@H](CNC(=O)C3CCOCC3)CN(C)C(=O)[C@@H]2C)c1 | 8% | -0.99 | –
42 | O=C1COc2ccc(S(=O)(=O)N3CCC[C@H]3C(=O)NC3CCCCCC3)cc2N1 | -2% | 0.25 | –
43 | O=C(Nc1ncc(Cc2ccccc2)s1)c1ccccc1OCc1ccccc1 | -10% | 1.16 | –
44 | O=C(NCc1csc2ncnn12)c1ccc(Oc2nccs2)cc1 | -1% | 0.16 | –

Row | Structure (SMILES) | % Inhibition | Z score | % Inhibition (2 µM)
45 | O=C1c2ccc(O)cc2C(=O)N1c1ccc(N(c2ccccc2)c2ccc(N3C(=O)c4ccc(O)cc4C3=O)cc2)cc1 | 8% | -1.03 | –
46 | CCN(c1ccccc1)S(=O)(=O)c1cccc(C(=O)N(C)Cc2ccccc2OC)c1 | -1% | 0.27 | –
47 | O=C(N[C@@H](Cc1ccccc1)C(=O)O)c1ccc(Cl)cn1 | -10% | 1.28 | –
48 | CC(C)Cn1ncc(C(=O)OCc2ccccn2)c1C(F)F | -11% | 1.53 | –
49 | CC[C@H]1C(=O)NCCN1C(=O)Nc1ncc(CC(C)C)s1 | -9% | 1.37 | –
50 | COCCN1CCC(CN(Cc2ccncc2)C(=O)[C@H]2CC23CCCC3)CC1 | 2% | -0.28 | –
51 | O=C1C[C@]2(CCc3ccccc32)C(=O)N1Cc1ccc(CO)cc1 | 1% | -0.13 | –
52 | Cc1cnc(C2CN([C@@H](C)C(C)C)C2)n1Cc1cccnc1 | -6% | 0.77 | –
53 | COc1ccc(-c2cc3n(n2)CCCN(C(=O)Nc2ccc(C)c(F)c2)C3)cc1OC | -6% | 0.68 | –
54 | COc1ccccc1Nc1ncccc1C(=O)NCc1ccc(CS(N)(=O)=O)cc1 | 6% | -0.88 | –
55 | COc1cc(-c2cc(-c3scnc3C)nc(N)c2C#N)c(Cl)cc1O | 4% | -0.69 | –
56 | Cc1cc(C(=O)NCc2cnn(C)c2C)nc(N2CCOCC2)n1 | 34% | -1.09 | –
57 | Cc1ccc(-c2cc(C(=O)Nc3cccc4nsnc34)c3ccccc3n2)cc1C | 2% | -0.23 | –
58 | Cc1cc(C(=O)N(C)CCCC2CCCC2)cc(C)n1 | 13% | -1.77 | –
59 | COc1cc(C#N)ccc1OCC=C(C)C | 5% | -0.95 | –
60 | CC(C)c1noc(N2CC[C@H](N3CCCC3=O)C2)n1 | 5% | -0.75 | –
61 | N[C@H]1CCCCN(Cc2noc(-c3ccccc3)n2)C1 | 1% | -0.14 | –
62 | Cc1ccc(CNc2ccc(-c3nc(-c4ccccc4)no3)nn2)o1 | 12% | -1.37 | –
63 | Cc1nnc2n1CCN(C(=O)c1nccc3ccccc13)C2 | -1% | 0.13 | –
64 | CCc1nc(CN(C)C(=O)c2cccc(-c3ccc(N(C)C)cc3)c2)no1 | -10% | 1.4 | –
65 | CCc1ccc(-c2nccn2-c2ccc(Cc3nnc(C)[nH]3)cc2)nc1 | -15% | 2.2 | –
66 | N[C@H]1CCN2C(=O)c3cc(-c4ccccc4F)ccc3NC(=O)[C@H]12 | 32% | -3.67 | –

Row | Structure (SMILES) | % Inhibition | Z score | % Inhibition (2 µM)
67 | COc1ccc(Nc2nc(C)c3nnn(-c4ccc(OC)c(Cl)c4)c3n2)cc1Cl | -11% | 1.67 | –
68 | C[C@@H](C(=O)NC1CCCC1)N1CCn2ccnc2C1 | -6% | 0.59 | –
69 | CCOc1ccc(C=C2CCCC3C2=NN(C(=O)c2ccc(F)cc2)C3c2ccc(OCC)cc2)cc1 (centres undefined) | 7% | -1.3 | –
70 | CCOC(=O)C1=C(c2ccccc2)S/C(=C2/C(=S)C(C)(C)N(C(=O)c3ccccc3)c3ccc(OCC)cc32)S1 | – | – | -2% and -9%
71 | CC(C#N)CN(C)S(=O)(=O)N1CCCC(c2nccn2C)C1 (centres undefined) | -10% | 1.5 | –
72 | CCCOc1cccc2c(NC[C@@]3(CCO)CCOC3)ccnc12 | -28% | 3.3 | –
73 | COCC(=O)N[C@@H](C)C(=O)NC1CCCCC1 | 0% | -0.07 | –
74 | C1CC2CN(c3nc(C4CC4)ns3)CC2C1 (centres undefined) | -17% | 2.45 | –
75 | CCCCc1cc(C[C@H]2CNCC[C@H]2CC(=O)N2CCN(c3ccccc3)CC2)no1 | -12% | 2.23 | –
76 | Cc1cc(C)c(C#N)c(-c2ccc(C(=O)N3CC[C@@H](O)C3)cc2)n1 | -13% | 1.6 | –
77 | CC(=O)NC1CCC(NC[C@H](C)Oc2cccc(F)c2)CC1 (some centres undefined) | 2% | -0.26 | –
78 | N#Cc1cccnc1NCCOC1CCCCCC1 | -4% | 0.3 | –
79 | O=C([C@H]1CCN(C2CCCCC2)C1)N1CCc2ccc(Cl)cc2C1 | -7% | 0.75 | –
80 | CC(C)(C)OC(=O)N1CCn2c(nnc2C2CC2)CC1(C)C | 0% | -0.01 | –
81 | Cc1ccccc1N1C2=CCCCCN2C[C@]1(O)c1ccc(Br)cc1 | 35% | -1.39 | –
82 | COCC(=O)N1CCCC[C@H]1c1nnc2n1CCN(Cc1c(C)noc1C)CC2 | -5% | 0.82 | –
83 | CN(Cc1cccc(-c2nnn[nH]2)c1)C(=O)Cn1cc2ccccc2n1 | 6% | -0.56 | –
84 | Cc1nc(CN(C)C(=O)CCc2c(C)[nH]c(=O)c(C#N)c2C)cs1 | -13% | 2.02 | –
85 | COc1cccc(O)c1S(=O)(=O)N1CCN(CC2CC2)CC1 | -7% | 1.32 | –
